Reference: patent publication US20210115143A1
Some entries of the source have several records that differ or are many. They are shown here; other results are not. An entry can have further records. Results that share an entry seem to repeat one measurement (runs, samples, wells or individuals).

Experiments:
[1] = target: hPD-L1-Fc fusion protein (made in the filing, Example 1) (human) (UniProt Q9NZQ7); assay: competitive ELISA: hPD-L1-hFc coated, competitor hCD80-hFc-biotin 100 µg/ml
[2] = target: hPD-L1-Fc fusion protein (made in the filing, Example 1) (human) (UniProt Q9NZQ7); assay: competitive ELISA: hPD-L1-hIgG coated, competitor hPD-1-hIgG-biotin 10 µg/ml

Sequence of UniProt Q9NZQ7 (Q9NZQ7 19-238 limits assumed): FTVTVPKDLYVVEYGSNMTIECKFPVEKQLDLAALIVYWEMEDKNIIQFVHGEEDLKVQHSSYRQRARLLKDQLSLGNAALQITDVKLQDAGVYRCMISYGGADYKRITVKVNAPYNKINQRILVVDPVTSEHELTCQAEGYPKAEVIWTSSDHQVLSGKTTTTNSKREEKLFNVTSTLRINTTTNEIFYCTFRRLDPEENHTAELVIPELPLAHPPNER

IC50 [1]: 0.553 µg/mL and 11.7 nM
IC50 [2]: 1.76 µg/mL and 11.7 nM
B1: B50-6 mAb (anti-hPD-L1, human IgG1, lambda) (antibody, part only; not given: human IgG1 and lambda constants, part only)
heavy, part: QVQLQQSGPGLVKPSQTLSLTCAISGDSVSSTKAAWYWIRQSPSRGLEWLGRTYFRSKWYNDYADSVKSRLTINPDTSKNQFSLQLKSVSPEDTAVYYCARGQYTAFDIWGQGTMVTVSS
light, part: QVQLVQSGAEVKKPASSVKVSCTASGGSFSTYAISWVRQAPGQGLEWMGGIIPIFGTTKYAQRFQGRVTITADESTTTAYMELSSLISDDTALYYCTTSRGFSYGWFDYWGQGTLVTVSS
